Experimental data reported in PMC4336329 (PLoS ONE, 2015).
In all, about 310,000 compounds went through this assay and about 2,200 (0.71%) showed an effect of 50% or more. Effects have a minus sign here. The list shows a part of the results.

target: human ether-à-go-go-related gene (hERG) potassium channel (human, UniProt Q12809); assay: primary screen, population patch clamp on CHO cells stably expressing hERG
Sequence (Q12809 whole entry, looked up): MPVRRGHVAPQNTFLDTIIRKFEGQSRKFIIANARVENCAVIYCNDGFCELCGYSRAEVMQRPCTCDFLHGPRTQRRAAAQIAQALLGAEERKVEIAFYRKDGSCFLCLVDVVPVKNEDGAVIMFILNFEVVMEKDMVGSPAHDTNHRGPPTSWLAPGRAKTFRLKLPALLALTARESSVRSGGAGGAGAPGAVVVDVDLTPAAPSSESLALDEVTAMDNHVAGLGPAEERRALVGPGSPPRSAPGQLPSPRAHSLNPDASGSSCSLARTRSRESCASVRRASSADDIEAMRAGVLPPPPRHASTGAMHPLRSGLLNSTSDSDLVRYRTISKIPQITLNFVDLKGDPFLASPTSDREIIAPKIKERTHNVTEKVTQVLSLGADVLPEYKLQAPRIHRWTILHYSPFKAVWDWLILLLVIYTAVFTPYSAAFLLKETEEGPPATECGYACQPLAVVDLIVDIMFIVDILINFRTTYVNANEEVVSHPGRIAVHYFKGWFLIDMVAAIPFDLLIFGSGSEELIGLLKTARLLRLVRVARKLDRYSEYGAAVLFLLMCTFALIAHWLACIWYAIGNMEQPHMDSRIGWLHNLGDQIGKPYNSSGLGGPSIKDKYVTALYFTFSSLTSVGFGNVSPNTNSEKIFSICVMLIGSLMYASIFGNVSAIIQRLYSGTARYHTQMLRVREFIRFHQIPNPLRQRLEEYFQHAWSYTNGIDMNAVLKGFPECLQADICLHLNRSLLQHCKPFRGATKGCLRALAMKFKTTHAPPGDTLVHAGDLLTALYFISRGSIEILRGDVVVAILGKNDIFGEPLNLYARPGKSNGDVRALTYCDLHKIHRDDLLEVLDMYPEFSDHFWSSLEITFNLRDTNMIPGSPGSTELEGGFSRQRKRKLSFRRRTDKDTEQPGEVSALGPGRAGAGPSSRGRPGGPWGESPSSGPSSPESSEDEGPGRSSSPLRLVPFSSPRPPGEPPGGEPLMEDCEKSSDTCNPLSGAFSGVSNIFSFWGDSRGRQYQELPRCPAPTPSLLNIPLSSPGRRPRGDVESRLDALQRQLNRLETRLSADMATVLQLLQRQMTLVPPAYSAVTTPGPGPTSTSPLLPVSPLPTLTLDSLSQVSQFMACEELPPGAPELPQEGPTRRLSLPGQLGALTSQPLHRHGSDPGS

Row | Compound | hERG current change (%, negative = inhibition) at 1uM [%]
1 | CC(=O)Nc1ccc(S(=O)(=O)N2CCC(C(=O)O)(c3ccccc3)CC2)cc1 | 12.4
2 | O=S(=O)(NCC(c1ccco1)N1CCN(c2ccc(F)cc2)CC1)c1ccc(F)cc1 (stereo not drawn) | 6.44
3 | COc1ccc(Nc2ccc([N+](=O)[O-])cc2[N+](=O)[O-])cc1 | -2.84
4 | COc1ccccc1CNC(=O)C(=O)NCC1OCCCN1S(=O)(=O)c1ccc(F)cc1C (stereo not drawn) | 16.4
5 | Cc1c(C(=O)O)cc(C(C)(C)C)n1CCSCCO | 10.4
6 | COC(=O)c1c(NC(=O)CSc2nnc(-c3ccco3)n2Cc2ccccc2)sc(C)c1C | 12.6
7 | CC(=O)O.NCC(c1ccco1)c1c[nH]c2ccccc12 (stereo not drawn) | 12.2
8 | COc1ccc(N2C(=O)/C(=C\c3ccco3)N=C2SCC(=O)N(C(C)C)C(C)C)cc1Cl | 20.1
9 | Cc1ccc(-n2nc(C)c(/C=N/NC(=O)c3cccnc3)c2Cl)cc1 | 15.8
10 | O=C(N/N=C1/CC(c2ccccc2)Oc2ccccc21)C1CC1 (stereo not drawn) | 5.76
11 | CCOc1ccc(-n2c(COc3ccccc3)nnc2SCC(N)=O)cc1 | 12.9
12 | Cc1ccc(NC(=O)CCNC(=O)c2ccc([N+](=O)[O-])cc2)cc1S(=O)(=O)N1CCOCC1 | 6.47
13 | COc1ccc(CCNC(=O)c2ccc(-c3ccc([N+](=O)[O-])cc3)o2)cc1OC | 1.04
14 | CCC(Sc1nc2ccccc2s1)C(=O)Nc1cc(C)on1 (stereo not drawn) | 11
15 | Oc1ccccc1C1CCCCC1c1ccccc1 (stereo not drawn) | 14.8
16 | S=C(NCCOCCOCCNC(=S)Nc1ccccc1)Nc1ccccc1 | 1.27
17 | Nc1ccc(C2(c3ccc(N)cc3)CCCCC2)cc1 | 7.81
18 | CCOC(=O)c1c(S(=O)(=O)Nc2cccc(-c3ccno3)c2)c(C)n(C)c1C | 6.92
19 | COc1ccc(C(=O)NCc2cnn(C)c2)cc1OC1CCN(C(C)C)CC1 | 14.3
20 | O=S(=O)(c1cccc(C(F)(F)F)c1)c1ccc(O)cn1 | 0.539
21 | CCN1C(=O)[C@H]2[C@@H](c3ccc(C)cc3)N3C(=O)N(c4ccccc4)C(=O)[C@@]3(CC)[C@H]2C1=O | 13.8
22 | O=C(O)C(=O)O.c1cc(CN2CCN(C3CCCCCC3)CC2)ccn1 | 2.88

Row | Compound | hERG current change (%, negative = inhibition) at 1uM [%]
23 | O=C(CCCCCN1C(=O)CCC1=O)Nc1ccc2c(c1)OCCO2 | 6.37
24 | CCOc1cc2c3c(c1)C(C)CC(C)(C)N3C(=O)C2=O (stereo not drawn) | -6.3
25 | COc1ccc(NC(=O)CN(C)C(=O)C2CC(=O)N(c3cccc4ccccc34)C2)cc1 (stereo not drawn) | 13.9
26 | O=C(CC(SCCO)c1ccc2c(c1)OCO2)c1ccco1 (stereo not drawn) | 5.32
27 | Cc1cccc(NC(=O)NCCc2c[nH]c3ccccc23)c1 | -0.241
28 | CCOC(=O)Cc1csc(NC(=O)Cc2cccs2)n1 | 8.62
29 | CCOc1ccc(C(C)=O)cc1COC(=O)C1=COCCO1 | -0.905
30 | O=C(NCc1nc2ccccc2[nH]1)C1=C[C@@H](c2ccccc2)C[C@@H](OCc2ccc(CO)cc2)O1 | 10.1
31 | CCCOc1ccccc1C(=O)Nc1ccc(S(=O)(=O)N2CCN(C)CC2)cc1 | 12.9
32 | Cc1ccc(-c2cnc(NC(=O)CCC(=O)N3CCCCC3)n2C)cc1 | 0.1
33 | CC1(C)CC2(CCO1)OC(=O)CC2C(=O)Nc1ccc(Br)cc1 (stereo not drawn) | 9.49
34 | CCc1ccc(C2=CC(c3cc(Br)ccc3F)n3ncnc3N2)cc1 (stereo not drawn) | 10
35 | CC1CCCCC1NC(=O)CN1CCC(O)(c2ccc3c(c2)OCO3)CC1 (stereo not drawn) | 1
36 | Cc1cc([N+](=O)[O-])c(-c2ccc(/C=N/n3cnnc3)o2)cc1Cl | 5.27
37 | CSc1ncc(Cl)c(C(=O)Nc2cccc(Cl)c2)n1 | 11.2
38 | Cc1ncc(C[n+]2csc(C)c2C)c(N)n1.Cl.[Cl-] | 16
39 | Cc1ccccc1-c1nc(CN2CCCC2c2ccc(F)cc2)c(C)o1 (stereo not drawn) | 13.1
40 | c1ccc(Nc2nc3ccccc3n3nnnc23)cc1 | 0.684
41 | COc1cc(C(=O)OCCCN(C)C)cc(OC)c1OC.Cl | 16.4
42 | O=c1[nH]cnc2scc(-c3ccc(F)cc3)c12 | 7.52
43 | CC(=O)CC(C)(C)n1nnc(-c2ccccc2)n1 | 8.01
44 | CC(OC(=O)Cn1c(C(F)(F)F)nc2ccccc21)C(=O)N1CCCc2ccccc21 (stereo not drawn) | 3.46

Row | Compound | hERG current change (%, negative = inhibition) at 1uM [%]
45 | COc1ccc(S(=O)(=O)N2CCC(C(=O)NN3CCCCC3)CC2)cc1OC | 5.04
46 | COc1ccc(-c2ccc(SCC(=O)N3CCOCC3)nn2)cc1OC | 3.67
47 | COc1ccc(Nc2ncnc3ccccc23)cc1.Cl | 0.335
48 | O=[N+]([O-])c1cccc(OCC(O)CN2CCN(S(=O)(=O)c3cc(Cl)ccc3Cl)CC2)c1 (stereo not drawn) | 8.34
49 | COc1cc2nc(Cl)nc(NCCO)c2cc1OC | 3.99
50 | CCOc1ccccc1NC(=O)CN(c1ccc(OC)cc1OC)S(=O)(=O)c1ccccc1[N+](=O)[O-] | 18.2
51 | O=C(Cc1csc(-c2cccc(Cl)c2)n1)Nc1cccc(S(=O)(=O)NC2=NCCC2)c1 | -0.269
52 | O=c1c2sccc2nc(SCc2cc(=O)n3ccccc3n2)n1Cc1ccccn1 | -7.07
53 | O=C(OC(C(=O)NCC1CCCO1)c1ccc(F)cc1)c1ccco1 (stereo not drawn) | 2.06
54 | COc1ccc(NC(=S)N(Cc2cccc(Br)c2)CC2CCC(C(=O)O)CC2)cc1 (stereo not drawn) | 0.519
55 | O=C(COc1ccc(Cl)cc1)NNC(=O)c1ccccc1C(=O)O | 7.24
56 | CCCNC(=O)NC(C(=O)OC)C12CC3CC(CC(C3)C1)C2 (stereo not drawn) | -4.09
57 | O=C(CCC1CCCN(C(=O)c2ccc3cc[nH]c3c2)C1)N1CCN(c2ccccn2)CC1 (stereo not drawn) | 10.3
58 | Cc1ccccc1N/N=C/c1sc(=O)n(Cc2cccc(C(=O)O)c2)c1Cl | 27.1
59 | CCN(CC)CC#CCC(O)(c1ccccc1)C1CCCC1.Cl (stereo not drawn) | 4.6
60 | CC(c1ccccc1)N1CCN(C(=O)CCl)CC1.Cl (stereo not drawn) | 9.75
61 | O=C(CC(SCCO)c1ccc2c(c1)OCO2)c1cccs1 (stereo not drawn) | 1.04
62 | COc1ccc(O)c(-c2cc(C(F)(F)C(F)F)nc(-c3ccccc3)n2)c1 | 11.1
63 | O=C(C[n+]1cc(Br)cc(Br)c1)c1ccccc1.[Br-] | 12.6
64 | COc1cc(/C=C/C(=O)Nc2nc3ccc(S(=O)(=O)NC(C)C)cc3s2)cc(OC)c1OC | 1.16
65 | Cc1c(C(=O)OCC(=O)N2CCCC2)cccc1[N+](=O)[O-] | 13.5
66 | Cc1ccc(COc2ccccc2-c2cc(C(=O)N/N=C/c3cccnc3)[nH]n2)cc1 | 4.14

Row | Compound | hERG current change (%, negative = inhibition) at 1uM [%]
67 | Cn1c(=O)c2c(ncn2CC(=O)OCC(=O)Nc2ccc(Cl)cc2Cl)n(C)c1=O | 5.38
68 | CSc1nc(-c2ccccc2)nn1C(=O)c1ccco1 | 10.5
69 | COc1ccc(-c2nc(SC(CC(=O)NCCO)c3cccs3)n[nH]2)cc1 (stereo not drawn) | 6.37
70 | O=C(O)c1cccc(N2C(=O)c3ccc(Oc4ccc(Cl)cc4)cc3C2=O)c1 | 6.59
71 | Nc1cccc(P(=O)(c2ccccc2)c2ccccc2)c1 | 18.5
72 | COC(=O)C1=C(C)N(CC(C)C)C(=O)/C1=C\c1cccs1 | 8.55
73 | O=C(CSc1n[nH]c(-c2ccccc2O)n1)NC1CCCCC1 | 9.54
74 | O=C(COC(=O)c1ccc(F)cc1)Nc1nc2ccc([N+](=O)[O-])cc2s1 | 13.9
75 | CCC(C(=O)N1CCC(N2CCCCC2)CC1)n1nc(C)c2sc3ccccc3c2c1=O (stereo not drawn) | -1.42
76 | COc1ccc(C(NC(=O)CN2CCCCCC2)c2ccc(OC)cc2)cc1 | -26.6
77 | CN(C)CCCCCCCCCCC(=O)/C=N/O.Cl | 7.17
78 | Cc1ccc(C2=[N+]([O-])C3(CCCCC/C3=N\NC(N)=O)N(O)C2(C)C)o1 (stereo not drawn) | 9.7
79 | COc1ccc(C2Nc3ccccc3C(=O)N2c2ccc(F)cc2)cc1CSc1ccccn1 (stereo not drawn) | 5.88
80 | C=C(C)c1cccc(C(C)(C)NC(=O)N2CC(C)OC(C)C2)c1 (stereo not drawn) | 8.52
81 | CC1=NN(C(C#N)c2ccccc2O)C(C)(C)C1 (stereo not drawn) | 11.1
82 | O=C(c1cc(-c2ccccc2)on1)N1CCN(Cc2ccc3c(c2)OCO3)CC1 | -27.1
83 | COc1cc(C(=O)NCC(c2ccco2)N2CCOCC2)cc(OC)c1OC (stereo not drawn) | 18.3
84 | COc1cc(C(=O)Nc2ccc(Br)cc2C(=O)c2cc(OC)c(OC)c(OC)c2)cc(OC)c1OC | 10.6
85 | CCn1cc2nc(SCC(=O)Nc3ccc(F)cc3F)n(Cc3ccccc3)c(=O)c2n1 | 15.6
86 | Cc1[nH]c(=O)[nH]c1C(=O)CCCCC(=O)O | 3.63
87 | Cc1cccc(C(=O)Oc2ccc(/C=N/NC(=O)c3ccccc3O)cc2)c1 | 9.11
